Patent publication US20140378664A1 (published 2014)

Experiments:
Assay in all cases: SPR
[1] = target: human EGFR extracellular domain (Prospec) (human, UniProt P00533 part only)
c-MET (RnD systems) = target: T1, c-MET (RnD systems) (UniProt P08581 25-932)
T1 chain: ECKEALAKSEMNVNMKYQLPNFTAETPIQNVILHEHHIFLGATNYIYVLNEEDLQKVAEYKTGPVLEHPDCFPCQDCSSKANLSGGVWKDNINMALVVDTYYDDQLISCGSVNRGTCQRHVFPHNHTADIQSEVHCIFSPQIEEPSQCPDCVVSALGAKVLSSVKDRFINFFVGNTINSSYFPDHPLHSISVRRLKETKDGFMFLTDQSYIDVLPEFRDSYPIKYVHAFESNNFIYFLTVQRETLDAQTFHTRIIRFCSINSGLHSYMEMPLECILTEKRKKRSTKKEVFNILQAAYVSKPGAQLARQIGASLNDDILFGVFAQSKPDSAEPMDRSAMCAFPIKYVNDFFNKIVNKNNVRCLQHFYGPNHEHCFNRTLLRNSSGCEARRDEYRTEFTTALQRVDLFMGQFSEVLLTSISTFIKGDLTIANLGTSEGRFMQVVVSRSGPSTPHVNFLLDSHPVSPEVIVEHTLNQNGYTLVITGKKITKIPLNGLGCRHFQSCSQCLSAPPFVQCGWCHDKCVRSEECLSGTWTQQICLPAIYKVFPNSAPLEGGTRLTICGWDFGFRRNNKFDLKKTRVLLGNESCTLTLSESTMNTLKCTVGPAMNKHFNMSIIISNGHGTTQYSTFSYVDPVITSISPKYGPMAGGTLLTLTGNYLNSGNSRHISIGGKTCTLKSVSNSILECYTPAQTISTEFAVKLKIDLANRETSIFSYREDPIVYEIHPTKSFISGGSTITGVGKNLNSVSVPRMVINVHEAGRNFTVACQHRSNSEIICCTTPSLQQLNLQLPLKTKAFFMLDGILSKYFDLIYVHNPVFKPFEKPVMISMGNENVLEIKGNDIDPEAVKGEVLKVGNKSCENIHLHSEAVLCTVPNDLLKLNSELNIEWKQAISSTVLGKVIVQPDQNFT

[2] = target: T2, Human c-Met (Sino Biologicals) (human, UniProt P08581 25-932)
T2 chain: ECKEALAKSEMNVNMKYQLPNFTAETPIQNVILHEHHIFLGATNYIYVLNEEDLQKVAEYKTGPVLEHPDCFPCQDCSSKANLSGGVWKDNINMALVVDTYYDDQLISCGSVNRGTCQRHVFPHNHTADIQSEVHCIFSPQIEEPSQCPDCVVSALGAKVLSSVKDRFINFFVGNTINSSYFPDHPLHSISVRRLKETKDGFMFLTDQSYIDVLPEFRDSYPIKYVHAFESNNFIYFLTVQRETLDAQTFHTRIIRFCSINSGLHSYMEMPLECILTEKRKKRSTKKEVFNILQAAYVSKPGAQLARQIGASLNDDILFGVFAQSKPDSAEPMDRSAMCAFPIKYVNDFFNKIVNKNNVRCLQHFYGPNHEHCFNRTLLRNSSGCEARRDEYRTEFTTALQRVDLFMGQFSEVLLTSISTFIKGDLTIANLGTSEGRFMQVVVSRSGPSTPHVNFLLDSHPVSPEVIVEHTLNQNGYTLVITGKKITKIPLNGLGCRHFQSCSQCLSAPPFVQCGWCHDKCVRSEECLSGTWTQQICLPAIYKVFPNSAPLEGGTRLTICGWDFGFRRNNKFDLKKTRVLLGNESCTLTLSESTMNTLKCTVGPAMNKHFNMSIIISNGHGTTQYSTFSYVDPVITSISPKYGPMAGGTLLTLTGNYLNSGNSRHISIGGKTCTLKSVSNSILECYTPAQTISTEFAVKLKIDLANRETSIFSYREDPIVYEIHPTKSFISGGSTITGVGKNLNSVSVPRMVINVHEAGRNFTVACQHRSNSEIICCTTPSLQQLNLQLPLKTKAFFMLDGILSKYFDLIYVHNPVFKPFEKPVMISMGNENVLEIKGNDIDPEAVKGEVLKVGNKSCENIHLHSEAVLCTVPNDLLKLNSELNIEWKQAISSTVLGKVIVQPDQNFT

B1: E×E, anti-EGFR single antibody of Example 2 (antibody)
chain: QVQLVQSGAEVKKPGSSVKVSCKASGFTFTDYKIHWVRQAPGQGLEWMGYFNPNSGYSTYAQKFQGRVTITADKSTSTAYMELSSLRSEDTAVYYCARLSPGGYYVMDAWGQGTTVTVSSGGGGSSGGGSGGGGSDIQMTQSPSSLSASVGDRVTITCRASQGINNYLNWYQQKPGKAPKRLIYNTNNLQTGVPSRFSGSGSGTEFTLTISSLQPEDFATYYCLQHNSFPTFGQGTKLEIKRT[human IgG1 Fc left out here]
[1]
  Kd: 6.8 nM

B2: M×M, anti-cMet monospecific bivalent Ab of Example 4 (antibody)
chain: EVQLVESGGGLVQPGGSLRLSCAASGFTFTDYYMSWVRQAPGKGLEWLGFIRNKANGYTTEYSASVKGRFTISRDNSKNTLYLQMNSLRAEDTAVYYCARDNWFAYWGQGTLVTVSSGLGGLGGGGSGGGGSGGSSGVGSDIQMTQSPSSLSASVGDRVTITCKSSQSLLASGNQNNYLAWHQQKPGKAPKMLIIWASTRVSGVPSRFSGSGSGTDFTLTISSLQPEDFATYYCQQSYSRPYTFGQGTKVEIKR[human IgG1 Fc left out here]
c-MET (RnD systems)
  Kd: < 0.01 nM

B3: M×M, anti-c-Met single antibody of Example 2 (antibody)
chain: EVQLVESGGGLVQPGGSLRLSCAASGFTFTDYYMSWVRQAPGKGLEWLGFIRNKANGYTTEYSASVKGRFTISRDNSKNTLYLQMNSLRAEDTAVYYCARDNWFAYWGQGTLVTVSSGLGGLGGGGSGGGGSGGSSGVGSDIQMTQSPSSLSASVGDRVTITCKSSQSLLASGNQNNYLAWHQQKPGKAPKMLIIWASTRVSGVPSRFSGSGSGTDFTLTISSLQPEDFATYYCQQSYSRPYTFGQGTKVEIKR[human IgG1 Fc left out here]
[2]
  Kd: 0.000179 nM
